Counter-ions that a name gives are not always drawn.
These compounds were tested against T1, human NTCP (Homo sapiens, UniProt Q14973) (assay: Screening taurocholate uptake assay (96-well, [14C]taurocholate, 10 µM drug)). Conditions: not given.
T1 sequence (Q14973 1-349): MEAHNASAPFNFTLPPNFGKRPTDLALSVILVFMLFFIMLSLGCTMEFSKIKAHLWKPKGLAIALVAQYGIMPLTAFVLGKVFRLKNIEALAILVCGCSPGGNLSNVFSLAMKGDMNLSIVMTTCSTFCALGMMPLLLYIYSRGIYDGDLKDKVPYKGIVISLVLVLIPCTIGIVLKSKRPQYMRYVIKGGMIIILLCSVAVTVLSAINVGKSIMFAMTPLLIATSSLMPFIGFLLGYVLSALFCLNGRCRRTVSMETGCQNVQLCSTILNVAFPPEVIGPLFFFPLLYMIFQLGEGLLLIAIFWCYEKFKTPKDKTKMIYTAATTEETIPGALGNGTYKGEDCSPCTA

Compound | %NTCP activity
CC(C)NC[C@@H](O)COc1ccc(CC(N)=O)cc1 [(R)-(+)-Atenolol] | 68.3527%
Cl.NCC(O)c1ccc(O)cc1 (racemic) [(+,-)-Octopamine hydrochloride] | 75.3776%
CN(C)CCOC(=O)COc1ccc(Cl)cc1.Cl [Meclofenoxate hydrochloride] | 84.543%
CC(=O)[C@H]1CC[C@H]2[C@@H]3CC=C4C[C@@H](O)CC[C@]4(C)[C@H]3CC[C@]12C [Pregnenolone] | 24.3643%

Same assay, conditions: 10 min, read-out: %NTCP activity

Compound | remaining activity at 10 µM
NCC1(CC(=O)O)CCCCC1 [Gabapentin] | 64%
O=C1c2ccccc2C(=O)C1c1ccccc1 [Phenindione] | 105%
CC(=O)O[C@H]1C[C@@]2(C)[C@@H](C[C@@H](O)[C@H]3[C@@]4(C)CC[C@@H](O)[C@@H](C)[C@@H]4CC[C@@]32C)/C1=C(\CCC=C(C)C)C(=O)O [Fusidic acid sodium salt] | 60.7%
Cc1ccc(-c2cc(C(F)(F)F)nn2-c2ccc(S(N)(=O)=O)cc2)cc1 [Celecoxib] | 66.1%
C[C@@H](c1ncncc1F)[C@](O)(Cn1cncn1)c1ccc(F)cc1F [Voriconazole] | 118%
COCCOC(=O)C1=C(C)NC(C)=C(C(=O)OC/C=C/c2ccccc2)C1c1cccc([N+](=O)[O-])c1 (stereo not shown) [Cilnidipine] | 126%
COc1cc(NC(C)CCCN)c2ncccc2c1 (stereo not shown) [Primaquine diphosphate] | 86.8%
O=C1c2cccc3c2[C@H](CCC3)CN1[C@@H]1CN2CCC1CC2 [Palonosetron hydrochloride] | 122%
CC(=O)[C@@]1(O)CC[C@H]2[C@@H]3C[C@H](C)C4=CC(=O)C=C[C@]4(C)[C@@]3(F)[C@@H](O)C[C@@]21C [Fluorometholone] | 99.6%
CC[C@@H](C(N)=O)N1CCCC1=O [Levetiracetam] | 118%
C[C@]12CCC(=O)C=C1C=C[C@@H]1[C@@H]2CC[C@@]2(C)[C@H]1CC[C@@]21CCC(=O)O1 [Canrenone] | 52.4%
C[C@]12CC[C@H](O)C[C@H]1CC[C@@H]1[C@@H]2C[C@@H](O)[C@]2(C)[C@@H](C3=CC(=O)OC3)CC[C@]12O [Digoxigenin] | 66.9%
Cc1ncc([N+](=O)[O-])n1CCO [Metronidazole] | 59.9%
CC(C)[N+](C)(CCOC(=O)C1c2ccccc2Oc2ccccc21)C(C)C [Propantheline bromide] | 103%
N=C(N)c1ccc(OCCCCCOc2ccc(C(=N)N)cc2)cc1 [Pentamidine isethionate] | 65.6%
CN(C)c1ccc(O)c2c1C[C@H]1C[C@H]3[C@H](N(C)C)C(O)=C(C(N)=O)C(=O)[C@@]3(O)C(O)=C1C2=O [Minocycline hydrochloride] | 48.6%
C1CCc2nnnn2CC1 [Pentylenetetrazole] | 118%
O=C1NCCN1CCN1CCC(c2cn(-c3ccc(F)cc3)c3ccc(Cl)cc23)CC1 [Sertindole] | 139%
Fc1ccc(C(c2ccc(F)cc2)N2CCN(C/C=C/c3ccccc3)CC2)cc1 [Flunarizine dihydrochloride] | 86.7%
Cc1ccc(N(CC2=NCCN2)c2cccc(O)c2)cc1 [Phentolamine hydrochloride] | 113%
COC(=O)N/N=C/c1c[n+]([O-])c2ccccc2[n+]1[O-] [Carbadox] | 128%
CC1(C)O[C@@H]2C[C@H]3[C@@H]4C[C@H](F)C5=CC(=O)C=C[C@]5(C)[C@@]4(F)[C@@H](O)C[C@]3(C)[C@]2(C(=O)CO)O1 [Fluocinolone acetonide] | 48.4%

Each compound was assayed against T1, human NTCP (assay: Screening fluorescent competitive Myrcludex B-FITC binding assay (96-well, 10 µM drug)). Conditions: 0.5 h, read-out: %NTCP binding.

Compound | remaining activity at 10 µM
O=C1c2ccccc2C(=O)C1c1ccccc1 [Phenindione] | 74.9%
CC(=O)O[C@H]1C[C@@]2(C)[C@@H](C[C@@H](O)[C@H]3[C@@]4(C)CC[C@@H](O)[C@@H](C)[C@@H]4CC[C@@]32C)/C1=C(\CCC=C(C)C)C(=O)O [Fusidic acid sodium salt] | 49.9%
Cc1ccc(-c2cc(C(F)(F)F)nn2-c2ccc(S(N)(=O)=O)cc2)cc1 [Celecoxib] | 106%
C[C@@H](c1ncncc1F)[C@](O)(Cn1cncn1)c1ccc(F)cc1F [Voriconazole] | 76.2%
COCCOC(=O)C1=C(C)NC(C)=C(C(=O)OC/C=C/c2ccccc2)C1c1cccc([N+](=O)[O-])c1 (stereo not shown) [Cilnidipine] | 84.9%
COc1cc(NC(C)CCCN)c2ncccc2c1 (stereo not shown) [Primaquine diphosphate] | 41.3%
O=C1c2cccc3c2[C@H](CCC3)CN1[C@@H]1CN2CCC1CC2 [Palonosetron hydrochloride] | 57.4%
CC(=O)[C@@]1(O)CC[C@H]2[C@@H]3C[C@H](C)C4=CC(=O)C=C[C@]4(C)[C@@]3(F)[C@@H](O)C[C@@]21C [Fluorometholone] | 77.8%
C[C@]12CCC(=O)C=C1C=C[C@@H]1[C@@H]2CC[C@@]2(C)[C@H]1CC[C@@]21CCC(=O)O1 [Canrenone] | 109%
Cc1ncc([N+](=O)[O-])n1CCO [Metronidazole] | 82.1%
CC(C)[N+](C)(CCOC(=O)C1c2ccccc2Oc2ccccc21)C(C)C [Propantheline bromide] | 113%
N=C(N)c1ccc(OCCCCCOc2ccc(C(=N)N)cc2)cc1 [Pentamidine isethionate] | 74.1%
CN(C)c1ccc(O)c2c1C[C@H]1C[C@H]3[C@H](N(C)C)C(O)=C(C(N)=O)C(=O)[C@@]3(O)C(O)=C1C2=O [Minocycline hydrochloride] | 78.2%
O=C1NCCN1CCN1CCC(c2cn(-c3ccc(F)cc3)c3ccc(Cl)cc23)CC1 [Sertindole] | 77.7%
Fc1ccc(C(c2ccc(F)cc2)N2CCN(C/C=C/c3ccccc3)CC2)cc1 [Flunarizine dihydrochloride] | 74.8%
Cc1ccc(N(CC2=NCCN2)c2cccc(O)c2)cc1 [Phentolamine hydrochloride] | 62.3%
COC(=O)N/N=C/c1c[n+]([O-])c2ccccc2[n+]1[O-] [Carbadox] | 82.4%
CC1(C)O[C@@H]2C[C@H]3[C@@H]4C[C@H](F)C5=CC(=O)C=C[C@]5(C)[C@@]4(F)[C@@H](O)C[C@]3(C)[C@]2(C(=O)CO)O1 [Fluocinolone acetonide] | 81.2%

Same assay, conditions: 0.5 h, read-out: %NTCP binding, Prestwick library screen, Myrcludex B-FITC binding, 10 µM drug

Compound | remaining activity at 10 µM
CC[C@@H](C(N)=O)N1CCCC1=O [Levetiracetam] | 76.7%
C1CCc2nnnn2CC1 [Pentylenetetrazole] | 77.7%

Same assay, conditions: 0.5 h, read-out: %NTCP binding, screen, 10 µM drug, Myrcludex B-FITC binding

Compound | remaining activity at 10 µM
NCC1(CC(=O)O)CCCCC1 [Gabapentin] | 83.9%
C[C@]12CC[C@H](O)C[C@H]1CC[C@@H]1[C@@H]2C[C@@H](O)[C@]2(C)[C@@H](C3=CC(=O)OC3)CC[C@]12O [Digoxigenin] | 90%

Same assay, conditions: Prestwick library screen, 10 µM drug, Myrcludex B-FITC binding

Compound | %NTCP binding
Cl.NCC(O)c1ccc(O)cc1 (racemic) [(+,-)-Octopamine hydrochloride] | 84.3899%

Same assay, conditions: Prestwick library screen, Myrcludex B-FITC binding, 10 µM drug

Compound | %NTCP binding
CC(C)NC[C@@H](O)COc1ccc(CC(N)=O)cc1 [(R)-(+)-Atenolol] | 79.4949%

Same assay, conditions: screen, 10 µM drug, Myrcludex B-FITC binding

Compound | %NTCP binding
CN(C)CCOC(=O)COc1ccc(Cl)cc1.Cl [Meclofenoxate hydrochloride] | 80.5418%
CC(=O)[C@H]1CC[C@H]2[C@@H]3CC=C4C[C@@H](O)CC[C@]4(C)[C@H]3CC[C@]12C [Pregnenolone] | 82.2384%

Source: article PMC5681660, “Reduced hepatitis B and D viral entry using clinically applied drugs as novel inhibitors of the bile acid transporter NTCP” (Scientific Reports, 2017)
